Sequences with one replicate were seen in a single cluster, so their values are uncertain.
What follows are sequences tested on ATP (assay: switch fluorescence ratio, 500 uM ATP over buffer (Cy3 cluster intensity, sum of 5 cycles each) (fold (ratio)); higher = stronger signal-on switching upon ATP binding; sequences stand for … in TCGTCGGCAGCGTCAGATGTGTATAAGAGACAGTTTTTTTTTTTTTTTTTTTTTTTTT…TC). Conditions: aptamer strand: ATP DNA aptamer (quencher-CACCTGGGGGAGTATTGCGGAGGAAGG + anchor), 100 nM annealed; ATP concentration: 500 uM; one replicate.
Procedure, shortened: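 Cy3-labelled switching-strand clusters on a modified Illumina MiSeq flow-cell were annealed to 100 nM quencher-labelled ATP aptamer, imaged in selection buffer, then imaged after 15 min with 500 uM ATP at 22 °C. Five buffer/ATP cycles ran, with NaOH stripping and re-annealing between them. The fluorescence ratio is summed target-cycle over summed buffer-cycle Cy3 intensity per cluster, averaged per switch-domain sequence. Clusters outside 100-1000 RFU were excluded.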
For TGATCGCATT, the switch fluorescence ratio was 1.79. In the case of TGATCGCGGT, the switch fluorescence ratio is reported as 1. For TGATCGGTA, the switch fluorescence ratio was 0.962. TGATGAGCTA was tested, and the switch fluorescence ratio was 0.986. With TGATGCAGGT the switch fluorescence ratio was 1.04. Sequence TGATGCTAGA has a switch fluorescence ratio of 1.01. TGATGGGCGA was tested, and the switch fluorescence ratio was 0.964. TGATGTATTT showed a switch fluorescence ratio of 0.973. TGATGTGAGT gave a switch fluorescence ratio of 0.996. TGATGTTTGG was tested, and the switch fluorescence ratio was 1.01. TGATTAGGGA was tested, and the switch fluorescence ratio was 1.02. With TGATTATGTG the switch fluorescence ratio was 0.962. TGATTCAGCC showed a switch fluorescence ratio of 1.02. TGATTCCATG was tested, and the switch fluorescence ratio was 0.987. TGATTCCTG showed a switch fluorescence ratio of 0.998. TGATTGCCAG was tested, and the switch fluorescence ratio was 1.03. Sequence TGATTGCCCC has a switch fluorescence ratio of 0.99. In the case of TGATTGCTGG, the switch fluorescence ratio is reported as 1.03. TGATTGGCTC was tested, and the switch fluorescence ratio was 0.959. Work on TGATTGTGAG yielded a switch fluorescence ratio of 1.01. TGATTTAGCC was tested, and the switch fluorescence ratio was 0.991. TGCAATGTGG gave a switch fluorescence ratio of 1.06. In the case of TGCACCAACT, the switch fluorescence ratio is reported as 1.98. TGCACCTGTG was tested, and the switch fluorescence ratio was 0.997. Work on TGCACTAGCG yielded a switch fluorescence ratio of 0.987. TGCACTTTAA gave a switch fluorescence ratio of 1.03. TGCAGACGAA was tested, and the switch fluorescence ratio was 1. TGCAGATAGT showed a switch fluorescence ratio of 1.16. TGCAGCGGCG gave a switch fluorescence ratio of 1. Work on TGCAGGCGTT yielded a switch fluorescence ratio of 1.02. TGCAGGGGAC showed a switch fluorescence ratio of 1.06. TGCAGTAGGA showed a switch fluorescence ratio of 1.07. TGCATAAGGT was tested, and the switch fluorescence ratio was 0.981. Work on TGCATACATC yielded a switch fluorescence ratio of 1.07. For TGCATAGTGT, the switch fluorescence ratio was 0.971. With TGCATCATAC the switch fluorescence ratio was 3.07. For TGCATCGATA, the switch fluorescence ratio was 1.01. TGCATGATGA showed a switch fluorescence ratio of 1.01. Work on TGCATTTGAG yielded a switch fluorescence ratio of 1.01. TGCATTTGTG gave a switch fluorescence ratio of 0.971. Sequence TGCCACATTT has a switch fluorescence ratio of 1.58. With TGCCAGGGTA the switch fluorescence ratio was 1.08. With TGCCAGTACC the switch fluorescence ratio was 1. TGCCATAAAT showed a switch fluorescence ratio of 0.983. With TGCCATTCAA the switch fluorescence ratio was 1.04. With TGCCCATCAC the switch fluorescence ratio was 1.03. TGCCCGAGG showed a switch fluorescence ratio of 1.05. In the case of TGCCCGTACA, the switch fluorescence ratio is reported as 1.02. TGCCGAACGT was tested, and the switch fluorescence ratio was 1.05. TGCCGACCTA gave a switch fluorescence ratio of 1.06. TGCCGAGTAC showed a switch fluorescence ratio of 1.11. For TGCCGGAGCG, the switch fluorescence ratio was 1.19. With TGCCTAGGTC the switch fluorescence ratio was 1.04. Sequence TGCCTCATGG has a switch fluorescence ratio of 0.991. TGCCTGCAAC was tested, and the switch fluorescence ratio was 1.02. TGCCTGGGAC showed a switch fluorescence ratio of 0.994. Sequence TGCCTTGGAT has a switch fluorescence ratio of 1.03. TGCCTTTAGT was tested, and the switch fluorescence ratio was 1.03. Work on TGCCTTTTGA yielded a switch fluorescence ratio of 1.05. Work on TGCGAAAGGG yielded a switch fluorescence ratio of 0.992. With TGCGAACGAA the switch fluorescence ratio was 1.12. Sequence TGCGATAGTG has a switch fluorescence ratio of 1.01. Work on TGCGATAGTT yielded a switch fluorescence ratio of 1.01. In the case of TGCGCATAAC, the switch fluorescence ratio is reported as 3.47. TGCGCCCAAC gave a switch fluorescence ratio of 1.16. With TGCGCGTGAT the switch fluorescence ratio was 0.982. In the case of TGCGCTACTT, the switch fluorescence ratio is reported as 1.16. TGCGCTATTC was tested, and the switch fluorescence ratio was 2.52. Sequence TGCGCTGCCT has a switch fluorescence ratio of 0.966. TGCGCTTAG gave a switch fluorescence ratio of 0.987. TGCGGACGTC was tested, and the switch fluorescence ratio was 0.925. TGCGGATCTG was tested, and the switch fluorescence ratio was 0.992. TGCGGATGAA was tested, and the switch fluorescence ratio was 0.994. For TGCGGCCTCT, the switch fluorescence ratio was 1.04. With TGCGGGATGC the switch fluorescence ratio was 1.13. TGCGGGCTCA gave a switch fluorescence ratio of 1.01. Sequence TGCGGGGTAG has a switch fluorescence ratio of 1.02. Sequence TGCGGTAGT has a switch fluorescence ratio of 1.09. With TGCGGTATCG the switch fluorescence ratio was 1.03. With TGCGGTCGGT the switch fluorescence ratio was 0.969. In the case of TGCGGTGCTC, the switch fluorescence ratio is reported as 1.13. With TGCGTAGCAT the switch fluorescence ratio was 0.993. For TGCGTATCGG, the switch fluorescence ratio was 0.97. Work on TGCGTCACCG yielded a switch fluorescence ratio of 0.978. For TGCGTTATC, the switch fluorescence ratio was 1.42. For TGCGTTATCC, the switch fluorescence ratio was 1.04. Work on TGCTAAGGGG yielded a switch fluorescence ratio of 1.02. TGCTAGTATG gave a switch fluorescence ratio of 0.983. TGCTAGTTAT was tested, and the switch fluorescence ratio was 1.03. TGCTATGGG was tested, and the switch fluorescence ratio was 1.05. Work on TGCTCCAAAA yielded a switch fluorescence ratio of 1.35. Sequence TGCTCGATC has a switch fluorescence ratio of 1.14. In the case of TGCTCTCATG, the switch fluorescence ratio is reported as 1.01. Work on TGCTCTGAAA yielded a switch fluorescence ratio of 1.34. Sequence TGCTGAGTCC has a switch fluorescence ratio of 1.01. For TGCTGATTAA, the switch fluorescence ratio was 1.03. TGCTGCGGAG showed a switch fluorescence ratio of 1. With TGCTGCTGTA the switch fluorescence ratio was 1. In the case of TGCTGTCC, the switch fluorescence ratio is reported as 1.02. With TGCTTACCAT the switch fluorescence ratio was 1.02. Sequence TGCTTAGAAA has a switch fluorescence ratio of 0.991. For TGCTTAGATT, the switch fluorescence ratio was 0.987. TGCTTCTGGA gave a switch fluorescence ratio of 1.01. With TGCTTGCAGC the switch fluorescence ratio was 0.964. Sequence TGCTTGGT has a switch fluorescence ratio of 0.994. With TGCTTTAGAG the switch fluorescence ratio was 0.994. Sequence TGCTTTCATA has a switch fluorescence ratio of 1.02. TGCTTTTGTT gave a switch fluorescence ratio of 0.947. TGGAAAGCAA was tested, and the switch fluorescence ratio was 1.4. With TGGAAATTCG the switch fluorescence ratio was 0.997. Sequence TGGAACCTTT has a switch fluorescence ratio of 2.54. Sequence TGGAACGTGT has a switch fluorescence ratio of 1.01. Sequence TGGAATCCTG has a switch fluorescence ratio of 0.978. Work on TGGAATGCCC yielded a switch fluorescence ratio of 0.953. TGGAATGCT showed a switch fluorescence ratio of 1.06. TGGAATTAAG showed a switch fluorescence ratio of 0.989. With TGGAATTCGT the switch fluorescence ratio was 1. Work on TGGACACACG yielded a switch fluorescence ratio of 1.1. In the case of TGGACATTAG, the switch fluorescence ratio is reported as 0.998. In the case of TGGACCCTCC, the switch fluorescence ratio is reported as 1.19. With TGGACCGGCA the switch fluorescence ratio was 1.02. TGGACGAGGC gave a switch fluorescence ratio of 1.02. Sequence TGGACGAGGT has a switch fluorescence ratio of 1.02. Work on TGGACTAATT yielded a switch fluorescence ratio of 0.942. In the case of TGGAGATTTG, the switch fluorescence ratio is reported as 1. With TGGAGCAATC the switch fluorescence ratio was 1.42. TGGAGCCATA gave a switch fluorescence ratio of 1.01. For TGGAGCCCGC, the switch fluorescence ratio was 1.01. In the case of TGGAGCTACG, the switch fluorescence ratio is reported as 1.04. TGGAGGAGTC showed a switch fluorescence ratio of 1.01. TGGAGGTTGC gave a switch fluorescence ratio of 1.01. Sequence TGGAGTAGTG has a switch fluorescence ratio of 1.03. Work on TGGAGTCAGC yielded a switch fluorescence ratio of 0.989. TGGAGTGTGA showed a switch fluorescence ratio of 1.02. In the case of TGGAGTTACC, the switch fluorescence ratio is reported as 0.973. With TGGAGTTTCT the switch fluorescence ratio was 0.989. Work on TGGATAAATA yielded a switch fluorescence ratio of 1. TGGATATCTT showed a switch fluorescence ratio of 1. TGGATATTT gave a switch fluorescence ratio of 1.01. TGGATCAGGG was tested, and the switch fluorescence ratio was 1.03. Work on TGGATCCTAG yielded a switch fluorescence ratio of 0.973. Sequence TGGATGCGCC has a switch fluorescence ratio of 0.975. For TGGATGGTGA, the switch fluorescence ratio was 0.957. In the case of TGGATGTTGC, the switch fluorescence ratio is reported as 1.02. In the case of TGGATGTTTT, the switch fluorescence ratio is reported as 0.955. TGGATTGATC was tested, and the switch fluorescence ratio was 0.965. Work on TGGATTGTAA yielded a switch fluorescence ratio of 0.949. TGGCAAACG was tested, and the switch fluorescence ratio was 1. In the case of TGGCAATCTT, the switch fluorescence ratio is reported as 1.02. TGGCAATTTA showed a switch fluorescence ratio of 1. TGGCACAGA was tested, and the switch fluorescence ratio was 1. Sequence TGGCACCAGA has a switch fluorescence ratio of 1. Work on TGGCACCTGA yielded a switch fluorescence ratio of 1.03. For TGGCAGACCA, the switch fluorescence ratio was 0.992. With TGGCAGTGAA the switch fluorescence ratio was 0.997. Sequence TGGCAGTTGC has a switch fluorescence ratio of 0.965. Work on TGGCATACA yielded a switch fluorescence ratio of 1. In the case of TGGCATACCG, the switch fluorescence ratio is reported as 1.01. With TGGCCAATGC the switch fluorescence ratio was 1.16. TGGCCCTCGT gave a switch fluorescence ratio of 1.05. Sequence TGGCCGAGGT has a switch fluorescence ratio of 0.978. TGGCCGGGGA showed a switch fluorescence ratio of 1.02. TGGCCTTCAT gave a switch fluorescence ratio of 1.22. TGGCCTTGAC was tested, and the switch fluorescence ratio was 1.03. Sequence TGGCGAGA has a switch fluorescence ratio of 1.01. For TGGCGAGGAA, the switch fluorescence ratio was 1.05. Work on TGGCGAGGTA yielded a switch fluorescence ratio of 1.01. TGGCGATGGG was tested, and the switch fluorescence ratio was 1. TGGCGCAGTG gave a switch fluorescence ratio of 1.01. In the case of TGGCGGAGGA, the switch fluorescence ratio is reported as 1.14. With TGGCGGATCG the switch fluorescence ratio was 1.03. Work on TGGCGGCTAT yielded a switch fluorescence ratio of 0.983. In the case of TGGCGGGTTG, the switch fluorescence ratio is reported as 1.03. Sequence TGGCGTAGGC has a switch fluorescence ratio of 0.994. Work on TGGCGTCAAA yielded a switch fluorescence ratio of 1.03. With TGGCGTTTAG the switch fluorescence ratio was 0.957. For TGGCTAATAG, the switch fluorescence ratio was 1.01. Work on TGGCTACTTG yielded a switch fluorescence ratio of 0.957. TGGCTCATGC was tested, and the switch fluorescence ratio was 0.934. Sequence TGGCTGCTAA has a switch fluorescence ratio of 0.965. For TGGCTTCGTC, the switch fluorescence ratio was 1. TGGCTTGACT showed a switch fluorescence ratio of 0.981. TGGCTTTCTC was tested, and the switch fluorescence ratio was 1.11. TGGCTTTGGG showed a switch fluorescence ratio of 1.04. TGGCTTTTCT showed a switch fluorescence ratio of 1.13. For TGGGAAAAGC, the switch fluorescence ratio was 1. With TGGGACACTT the switch fluorescence ratio was 1.05. Work on TGGGAGAGG yielded a switch fluorescence ratio of 0.993. TGGGAGGCTC showed a switch fluorescence ratio of 0.993. In the case of TGGGAGGGC, the switch fluorescence ratio is reported as 0.99. TGGGATAACC was tested, and the switch fluorescence ratio was 1.01. Work on TGGGCATCCC yielded a switch fluorescence ratio of 1.01. For TGGGCATGCT, the switch fluorescence ratio was 1.05. TGGGCATGGT gave a switch fluorescence ratio of 1.16. Sequence TGGGCCATGC has a switch fluorescence ratio of 1.06. Work on TGGGCCCCGT yielded a switch fluorescence ratio of 1.02. Sequence TGGGCCTCGC has a switch fluorescence ratio of 1. With TGGGCCTGTA the switch fluorescence ratio was 1.01. Work on TGGGCGAGAT yielded a switch fluorescence ratio of 1.01. For TGGGCGCAGA, the switch fluorescence ratio was 0.984. Sequence TGGGCGGCGC has a switch fluorescence ratio of 1.01.

— the supplement of paper PMC10126150
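Note: ATP exposure 15 min at 22 °C before imaging.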
